Measured values reported in the supplement of paper PMC7826260.
The other results are listed elsewhere or left out. Viral Rep nickase domains cut single-stranded DNA in vitro at 3 µM enzyme and 37 °C for 1 h; the strands have 90 letters, of which the middle is given. Values are log2 of uncut reads against the no-enzyme pool; uncut sequences lie near 0, cut ones below; no hit call is given. The scaling is to total reads; where an enzyme cuts many sequences, the uncut ones exceed 0.

Legend:
Experiment in all cases: uncleaved DNA left, log2 of reads against the no-enzyme library (log2 ratio); higher = less cleavage (more negative = more Rep cleavage of the k-mer); sequences stand for … in CTCGTCCG…ACCGGAGA
[1] = test system: T1, Rep nickase domain of Muscovy duck circovirus
T1 sequence (residues 1-111 of Rep, tag left off): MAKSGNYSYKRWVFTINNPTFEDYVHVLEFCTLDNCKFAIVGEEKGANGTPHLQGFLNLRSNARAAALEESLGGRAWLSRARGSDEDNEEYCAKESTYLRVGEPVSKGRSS
Description: (§1)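 A pool of 90-nt single-stranded DNAs with seven random bases just before the constant AC of the nick site (name = the seven bases) was cut by 3 µM recombinant His6-SUMO-tagged Rep nickase domain (300 nM DNA, 50 mM HEPES pH 8.0, 50 mM NaCl, 1 mM MnCl2, 1 h, 37 °C, three replicates). Uncut DNA was amplified and sequenced.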

[2] = test system: T2, Rep nickase domain of banana bunchy top virus
T2 sequence (residues 1-94 of Rep, tag left off): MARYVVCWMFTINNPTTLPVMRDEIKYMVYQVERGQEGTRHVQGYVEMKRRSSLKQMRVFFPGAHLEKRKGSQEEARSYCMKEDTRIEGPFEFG
Description: as §1

[3] = test system: T3, Rep nickase domain of cabbage leaf curl virus
T3 sequence (residues 1-116 of Rep, tag left off): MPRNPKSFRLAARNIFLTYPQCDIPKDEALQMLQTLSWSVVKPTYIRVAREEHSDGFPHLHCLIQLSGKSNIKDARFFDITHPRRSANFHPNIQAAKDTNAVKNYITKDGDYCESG
Description: as §1

[4] = test system: T4, Rep nickase domain of chickpea chlorotic dwarf virus
T4 sequence (residues 1-124 of Rep, tag left off): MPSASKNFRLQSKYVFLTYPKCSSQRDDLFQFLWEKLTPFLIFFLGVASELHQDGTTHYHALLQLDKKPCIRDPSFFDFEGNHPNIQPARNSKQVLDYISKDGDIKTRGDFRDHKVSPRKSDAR
Description: as §1

[5] = test system: T5, Rep nickase domain of faba bean necrotic yellows virus
T5 sequence (residues 1-98 of Rep, tag left off): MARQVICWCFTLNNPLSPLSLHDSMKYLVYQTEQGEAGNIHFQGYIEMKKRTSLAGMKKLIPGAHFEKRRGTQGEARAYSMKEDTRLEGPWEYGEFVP
Description: as §1

[6] = test system: T6, Rep nickase domain of maize striate mosaic virus
T6 sequence (residues 1-117 of Rep, tag left off): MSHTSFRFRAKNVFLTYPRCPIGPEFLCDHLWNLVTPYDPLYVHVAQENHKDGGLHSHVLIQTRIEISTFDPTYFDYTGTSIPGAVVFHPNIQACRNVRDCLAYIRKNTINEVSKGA
Description: as §1

[7] = test system: T7, Rep nickase domain of porcine circovirus 2
T7 sequence (residues 2-116 of Rep, tag left off): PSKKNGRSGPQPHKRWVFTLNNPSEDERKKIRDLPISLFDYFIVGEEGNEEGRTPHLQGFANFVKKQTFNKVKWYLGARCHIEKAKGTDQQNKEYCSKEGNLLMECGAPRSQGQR
Description: as §1

[8] = test system: T8, Rep nickase domain of tomato yellow leaf curl virus
T8 sequence (residues 1-136 of Rep, tag left off): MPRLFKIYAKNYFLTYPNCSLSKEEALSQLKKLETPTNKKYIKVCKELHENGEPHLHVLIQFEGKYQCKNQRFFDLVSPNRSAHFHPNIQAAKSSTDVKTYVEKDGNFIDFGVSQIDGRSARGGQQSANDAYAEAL
Description: as §1

[9] = test system: T9, Rep nickase domain of wheat dwarf virus
T9 sequence (residues 1-137 of Rep, tag left off): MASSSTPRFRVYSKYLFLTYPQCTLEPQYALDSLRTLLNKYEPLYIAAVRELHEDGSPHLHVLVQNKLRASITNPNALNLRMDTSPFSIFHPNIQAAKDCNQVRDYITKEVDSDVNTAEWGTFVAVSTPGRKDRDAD
Description: as §1

Sequence | uncleaved DNA left (log2) [1] | uncleaved DNA left (log2) [2] | uncleaved DNA left (log2) [3] | uncleaved DNA left (log2) [4] | uncleaved DNA left (log2) [5] | uncleaved DNA left (log2) [6] | uncleaved DNA left (log2) [7] | uncleaved DNA left (log2) [8] | uncleaved DNA left (log2) [9]
CGTAGTA | -0.0647 | -0.0644 | 0.117 | -0.41 | -0.0513 | -0.0913 | -0.164 | 0.00407 | -0.0316
TAGCCGT | 0.073 | -0.0467 | -0.494 | -1.27 | -0.0194 | -0.947 | -1.04 | 0.0553 | 0.0334
TCGCATG | -0.242 | -0.218 | -0.298 | -0.425 | -0.1 | -0.422 | -0.0933 | -0.0547 | -0.218
GGACAAA | 0.1 | 0.112 | 0.874 | 2.05 | 0.103 | 2.26 | 0.281 | 0.0982 | 0.214
TGCGAGT | -0.0165 | -0.194 | -0.224 | 0.0416 | -0.173 | 0.373 | -0.0827 | -0.209 | -0.107
AAATTCT | -4.38 | -0.453 | -4.68 | -3.85 | -0.0932 | -3.9 | -4.55 | -0.414 | -3.99
TTAATTC | 0.0652 | -0.0569 | 0.391 | 0.101 | 0.0167 | -0.538 | 0.037 | -0.0859 | -0.0175
AATGACC | 0.0317 | -0.0238 | 0.0495 | 0.626 | 0.00875 | 0.916 | 0.122 | -0.0556 | 0.0205
TAGGCGA | 0.068 | -0.0615 | -0.513 | -0.695 | 0.153 | -1.11 | 0.113 | 0.0527 | -0.106
CTCCTGC | 0.036 | -0.123 | -0.507 | -0.7 | -0.116 | -1.04 | -0.146 | -0.0214 | 0.0204
TGTATTT | 0.0278 | -0.0312 | 0.294 | -0.841 | 0.0375 | 0.838 | -1.33 | 0.113 | 0.0333
CTCATCC | 0.139 | 0.0221 | 0.021 | -0.154 | -0.0556 | -0.557 | -0.00721 | 0.0221 | -0.0215
AGAAGAC | 0.0804 | 0.179 | 0.119 | 0.643 | 0.113 | 0.675 | 0.216 | 0.0263 | 0.0145
GTAAACG | -0.0351 | 0.0421 | -0.662 | -0.54 | -0.0219 | -0.767 | 0.111 | -0.0116 | -0.103
ATACTTT | -0.23 | -0.237 | -0.442 | -2.98 | -0.0528 | -0.786 | -0.773 | -0.153 | -0.184
AACCCGT | 0.0196 | 0.0697 | 0.245 | -0.246 | 0.144 | -0.314 | -0.0627 | 0.034 | -0.0387
AGGTCTA | 0.0316 | 0.0624 | 0.0769 | -0.196 | -0.0349 | 0.584 | -0.203 | 0.0234 | 0.0788
CAGAGAT | 0.0829 | 0.168 | 0.381 | 1.58 | 0.0314 | 1.9 | -0.021 | -0.157 | -0.023
TATCGTG | 0.0254 | 0.0759 | -0.558 | -0.737 | 0.145 | -1.06 | 0.191 | 0.133 | 0.0702
TAGAAAG | 0.114 | 0.168 | -0.721 | -0.607 | 0.109 | -1.04 | 0.13 | 0.0954 | 0.0503
GGACTTA | 0.0459 | 0.0211 | 0.69 | 1.71 | -0.112 | 2.06 | 0.0569 | -0.0165 | 0.198
ATTGGGA | -0.0617 | 0.0883 | -0.306 | -0.287 | 0.129 | -0.797 | 0.0372 | 0.0797 | -0.00347
ACTAATG | 0.176 | 0.059 | -0.406 | -0.346 | 0.159 | -0.999 | 0.205 | 0.0132 | 0.105
CTGCAAC | -0.0697 | -0.115 | -0.332 | -1.12 | -0.125 | -1.04 | -0.29 | -0.157 | -0.121
AACGTTG | -0.00382 | 0.0739 | -0.0264 | 0.419 | -0.00134 | 0.367 | 0.177 | 0.0172 | 0.00884
TTGACTA | 0.0255 | 0.0475 | 0.194 | 0.286 | -0.00478 | 0.938 | -0.0123 | 0.0899 | 0.0705
TGCACAA | 0.0826 | 0.0609 | -0.00875 | 0.241 | -0.0758 | -0.237 | -0.0271 | 0.0227 | 0.146
GGGCCAA | -0.119 | 0.0445 | 0.856 | 2 | -0.154 | 2.22 | 0.19 | 0.0121 | 0.0731
CTTCCAG | -0.0167 | 0.000317 | -0.608 | -0.558 | -0.0866 | -1 | 0.0208 | 0.0505 | -0.0494
AAAGCGG | 0.0837 | -0.0018 | 0.321 | 1.11 | 0.0786 | 1.07 | 0.23 | -0.019 | 0.091
